Measurements: EP4796129A1, “ANTI-NECTIN-4 ANTIBODY-DRUG CONJUGATE COMPRISING CAMPTOTHECIN DERIVATIVE” (Celltrion, Inc., priority 2023, dated 2025)
pIC50: −log10 of the molar value. Where two headings read alike, the source gives them in different places. Where a SMILES comes first, the peptide text is derived from it. [ ]: non-standard residue; d: D form. The star is where a group is joined. Dolaproine = CO[C@@H]([C@@H]1CCCN1)[C@@H](C)C(=O)O; Dil = CC[C@H](C)[C@H](NC)[C@@H](CC(=O)O)OC; X1 = C[C@@H](N*)[C@@H](O)c1ccccc1; NMeV = CN[C@H](C(=O)O)C(C)C

Legend:
[1] = test system: PC-3 (a prostate cancer cell line); test: In-vitro cell viability assay (CellTiter-Glo); details: PC-3 (Negative), Nectin-4 expression level -; 6 days of incubation
Experimental: (§1) Exatecan and MMAE were purchased from Medchemexpress.
(§2) Specifically, the cell lines described in Table 5 were seeded per well in a 96-well plate and incubated at room temperature (37°C, 5% CO2). After 24 hours, the cells were treated with 100 µL of payload compounds or ADC drugs at 9 concentrations (a 4-fold serial dilution starting from 1,000 nM). In particular, a control group (drug concentration 0), which is an untreated group, was also prepared. After 6 days of incubation (37°C, 5% CO2), 100 µL of CellTiter-Glo reagent (CellTiter-Glo® Luminescent Cell Viability Assay kit (Promega, G7571)) was added to each well and pipetted. Fluorescence was measured after incubation at room temperature (RT) for 10 minutes.

[2] = test system: SUM190PT (a breast cancer cell line); test: In-vitro cell viability assay (CellTiter-Glo); details: Nectin-4 expression level +++, 6 days of incubation
Experimental: as §1, §2

[3] = test system: H322M (a lung cancer cell line); test: cells; details: Homo sapiens, NCI-H322M
Experimental: as §1, §2

[4] = test system: Nectin4-HEK293 (an overexpressing cell line); test: In-vitro cell viability assay (CellTiter-Glo); format: cell-based; details: N4-HEK, Nectin-4 expression level +++; 6 days of incubation
Excerpt: as §1

[5] = test system: Nectin4-HEK293 (an overexpressing cell line); test: In-vitro cell viability assay (CellTiter-Glo); details: N4-HEK, Nectin-4 expression level +++; 6 days of incubation
Experimental: as §1, §2

[6] = test system: SUM190PT (a breast cancer cell line); details: Nectin-4 expression level +++, 6 days of incubation
Experimental: as §1, §2

Molecule | pIC50 [1] | pIC50 [2] | pIC50 ([3]; read-out: IC50) | pIC50 [4] | pIC50 [3] | pIC50 [5] | pIC50 [6]
CC[C@H](C)[C@@H]([C@@H](CC(=O)N1CCC[C@H]1[C@H](OC)[C@@H](C)C(=O)N[C@H](C)[C@@H](O)c1ccccc1)OC)N(C)C(=O)[C@@H](NC(=O)[C@@H](NC)C(C)C)C(C)C [MMAE, Monomethyl auristatin E] (H-[NMeV]V[Dil][Dolaproine]-X1) | 9.38 | 10.15 | 9.71 | – | – | – | –
CC[C@@]1(O)C(=O)OCc2c1cc1n(c2=O)Cc2c-1nc1cc3c(c4c1c2[C@@H](NC(=O)[C@@H](C)O)CC4)OCO3 [PBX-7016] | – | – | – | 8.87 | 8.77 | – | –
PADCEV: ADC in which anti-Nectin4 mAb and MMAE are linked by an mc-vc-PAB linker | 6.57 | – | – | – | – | 10.59 | 10.80
